Whole data set: some 33,000 sequences, median “E-score (-0.5 to 0.5)” near -0.036, cut for the highest 2% near 0.37. This is one part of the list.
These sequences were tested against T1, Yer064c (UniProt P40041) (assay: PBM E-score (8-mer binding enrichment) (E-score (-0.5 to 0.5)); higher = stronger / more preferred TF binding; most listed sequences are background and not binding sites). Conditions: protein concentration: 200 nM; construct: GST-full length.
T1 sequence: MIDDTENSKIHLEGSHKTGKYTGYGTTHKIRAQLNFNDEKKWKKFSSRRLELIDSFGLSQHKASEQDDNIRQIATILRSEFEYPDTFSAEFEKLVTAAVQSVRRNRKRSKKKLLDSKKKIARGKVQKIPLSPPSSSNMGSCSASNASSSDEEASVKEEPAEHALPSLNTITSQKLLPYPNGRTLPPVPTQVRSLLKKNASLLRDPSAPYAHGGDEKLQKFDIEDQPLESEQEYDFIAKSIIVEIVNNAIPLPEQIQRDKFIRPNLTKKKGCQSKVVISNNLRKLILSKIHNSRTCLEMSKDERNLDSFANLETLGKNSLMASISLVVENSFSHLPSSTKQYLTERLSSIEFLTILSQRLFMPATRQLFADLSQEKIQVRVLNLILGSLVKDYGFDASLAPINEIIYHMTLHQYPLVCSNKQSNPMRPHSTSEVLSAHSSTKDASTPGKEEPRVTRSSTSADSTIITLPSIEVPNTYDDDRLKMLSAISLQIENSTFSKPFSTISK
Outline: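 Yeast transcription factors carrying a GST tag, as full-length proteins or DNA-binding domains, were produced by PURExpress in vitro transcription/translation. About 100-200 nM protein was applied to universal all-10-mer Agilent arrays, double-stranded by primer extension on fresh or once-stripped slides. Bound protein was detected with fluorescent anti-GST, and scans were normalised with masliner. The Universal PBM Analysis Suite gave each ungapped eight-base word, pooled with its reverse complement, an E-score, a modified Wilcoxon-Mann-Whitney statistic.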

| Sequence | PBM E-score |
| --- | --- |
| GTCACCCA | 0.185 |
| AATTTATC | 0.0881 |
| AGTAAAGA | 0.0497 |
| ACCTGGAC | -0.149 |
| AATCGGAG | 0.119 |
| CTAGATAC | 0.0027 |
| AAAACTAT | -0.0688 |
| CAAGACAA | -0.122 |
| GGGTGCCA | -0.148 |
| TGCTCCCA | -0.22 |
| AGCCACCG | 0.0452 |
| CTAGGTCC | -0.333 |
| GAACACCC | -0.127 |
| GCGACAGA | -0.228 |
| GCAGCTGA | 0.136 |
| AATCTTTG | 0.123 |
| CTACAAAA | 0.037 |
| TTGTACAA | 0.018 |
| AGGTAAAA | -0.084 |
| GAAGTCGA | 0.0978 |
| GATTCCCC | 0.146 |
| AACTGTTG | -0.17 |
| ATGGTTTG | 0.101 |
| AAGCCGCA | -0.166 |
| ATAGCAGA | 0.0187 |

| Sequence | PBM E-score |
| --- | --- |
| GCTCTCAA | -0.0635 |
| AGCCAAGC | -0.208 |
| GGGGACTA | 0.235 |
| CTGGTACA | -0.138 |
| GGGAACCA | -0.0571 |
| GAAAGGCC | -0.394 |
| CAAAACAG | -0.0567 |
| CCTTACTC | 0.167 |
| AGGCGGAT | -0.0817 |
| GCGGTGGA | -0.0982 |
| CACTTCTC | -0.106 |
| ATTGCGAC | 0.0486 |
| CGGCTGAG | 0.183 |
| CTCCCGAG | 0.0821 |
| AGCTTATC | -0.166 |
| CGAGTGCA | 0.00011 |
| CTCGTAAG | 0.103 |
| GCATGTAC | -0.169 |
| GGTGAGCA | -0.00163 |
| CATAGCAA | -0.0521 |
| CGGTACCA | -0.231 |
| CTTTACGA | -0.0652 |
| ATATTAAA | 0.17 |
| CCTGAAGC | -0.132 |
| TGTTAAAA | 0.055 |

| Sequence | PBM E-score |
| --- | --- |
| AAAAAGGA | 0.0045 |
| TAAGGTGA | 0.267 |
| AAGTCCTG | 0.179 |
| ACGCAGGC | 0.00062 |
| CGAAGTAG | -0.013 |
| CCTAGGCA | -0.0973 |
| CAGTAAAC | -0.14 |
| ATGTACTG | 0.0673 |
| ACGTTAGC | 0.0139 |
| CTCAGGTA | 0.288 |
| ACGGCTCC | 0.0866 |
| ACAACGAC | 0.177 |
| GAGGCCTC | -0.386 |
| ATTAATAC | 0.175 |
| ACGCAGTA | -0.223 |
| CTCTGCTA | -0.152 |
| CCGTGAGA | -0.101 |
| GGATGTCA | -0.0973 |
| ATGCTCAA | -0.0195 |
| ATCACTGG | 0.16 |
| CACGTTTC | -0.245 |
| ATCTTGCG | 0.0337 |
| GGACACAA | -0.0994 |
| CAGTCGCG | 0.122 |
| ATAGCGGG | -0.283 |

| Sequence | PBM E-score |
| --- | --- |
| CCTACCAC | -0.303 |
| CATCATAG | 0.25 |
| ATGGGAAC | -0.0553 |
| ATTCCGAA | 0.196 |
| CCCTATCG | -0.194 |
| ACTTAGTC | 0.435 |
| CACGGAAC | -0.0467 |
| GCATCTAA | -0.14 |
| TCTAGCAA | 0.0733 |
| CGTCCTTC | -0.0345 |
| AGAAAGGC | -0.339 |
| CGTATAGA | -0.0711 |
| ACTGTAAG | -0.0222 |
| ACTTAAAT | 0.228 |
| CGCCCACC | -0.229 |
| TCGTAGCA | 0.128 |
| GTGTTAAC | 0.0749 |
| TATAGTGA | 0.134 |
| GGAGAGAC | -0.0739 |
| ACTTAGAC | 0.239 |
| GCCCTACA | -0.107 |
| ATAAAGAT | 0.00329 |
| AGCTTGTA | -0.0977 |
| CTATGCGC | -0.209 |
| AGCTCCTA | -0.135 |

| Sequence | PBM E-score |
| --- | --- |
| GAGCATCA | -0.113 |
| TCTGATCA | 0.111 |
| GAGGGCTA | -0.193 |
| TCTCGCAA | 0.129 |
| GCTTTTCC | -0.171 |
| CAACCTTC | -0.143 |
| AGTAAGCA | -0.0325 |
| ACTTTGAT | 0.173 |
| GAGTGTTA | 0.0826 |
| AAAGTACA | 0.00803 |
| AGCCGTCC | -0.251 |
| ACATCCAC | -0.0762 |
| GGTGCTGA | 0.0165 |
| AATGGTAC | -0.138 |
| AAAAATAG | 0.0314 |
| CGGCAAGA | -0.115 |
| ACGGTGCT | -0.196 |
| CCGGGTCG | -0.0877 |
| GGCACTAA | -0.1 |
| AGGATGAT | 0.281 |
| ACCGGATG | 0.0682 |
| GGCATCCC | -0.224 |
| GGCTCAGA | 0.107 |
| CGACGCGA | -0.099 |
| ACTAGCAA | 0.094 |

| Sequence | PBM E-score |
| --- | --- |
| CCACACAA | -0.18 |
| CGTGGTGA | 0.0571 |
| CATCCAGA | 0.0186 |
| ACCCGATA | 0.0769 |
| AGCCCACT | -0.0505 |
| CGGCGCGA | 0.0121 |
| GCTGGTAC | -0.27 |
| CCACGCCA | -0.104 |
| CTTGTAGC | -0.156 |
| ACGCGGAC | -0.13 |
| AGCCCCCT | -0.382 |
| GTCGTAGA | 0.16 |
| AGTACCTG | 0.0831 |
| CCATTCTA | -0.0361 |
| ACTTCGTG | 0.134 |
| AGCTACAT | -0.0827 |
| ACGCGGCT | -0.0107 |
| TATCGTCA | -0.243 |
| CGAAAATC | 0.187 |
| CGAGATCA | 0.091 |
| CATTGCCA | 0.0368 |
| CCACTCCA | -0.0978 |
| CCGCGTGA | 0.131 |
| CTTCGGGA | -0.137 |
| AGCCGACG | -0.144 |

| Sequence | PBM E-score |
| --- | --- |
| TCAAGCAA | 0.0908 |
| AAGCGATT | 0.203 |
| GAATGGTC | -0.241 |
| ACAATGGT | -0.0312 |
| CCATAGTC | 0.396 |
| ACCTGTAC | -0.144 |
| AACCCCAA | -0.0412 |
| ATTCCAGG | 0.118 |
| AGACCTCG | -0.0146 |
| CCCGTCCA | -0.205 |
| GATAAGTA | -0.0513 |
| CCCGCATC | -0.156 |
| GATCCGCA | -0.0645 |
| CCTGACAA | -0.124 |
| CGAACGAC | 0.117 |
| CCAGGGTC | -0.202 |
| TACGGCAA | 0.0538 |
| AGGCTGTC | -0.392 |
| CAAGCGTC | -0.267 |
| AGGCGGGA | -0.246 |
| ATGGCTAC | 0.338 |
| CATGCGGG | -0.042 |
